Values of other authors, collected in patent US10176292B2, “STING crystals and modulators” (MEMORIAL SLOAN-KETTERING CANCER CENTER, priority 2013, dated 2019).

Molecular target: hSTING (Homo sapiens, UniProt Q86WV6)
Details: Conlon et al. 2013, Kim et al.; cited from earlier work

UniProt Q86WV6, sequence (Q86WV6 whole entry): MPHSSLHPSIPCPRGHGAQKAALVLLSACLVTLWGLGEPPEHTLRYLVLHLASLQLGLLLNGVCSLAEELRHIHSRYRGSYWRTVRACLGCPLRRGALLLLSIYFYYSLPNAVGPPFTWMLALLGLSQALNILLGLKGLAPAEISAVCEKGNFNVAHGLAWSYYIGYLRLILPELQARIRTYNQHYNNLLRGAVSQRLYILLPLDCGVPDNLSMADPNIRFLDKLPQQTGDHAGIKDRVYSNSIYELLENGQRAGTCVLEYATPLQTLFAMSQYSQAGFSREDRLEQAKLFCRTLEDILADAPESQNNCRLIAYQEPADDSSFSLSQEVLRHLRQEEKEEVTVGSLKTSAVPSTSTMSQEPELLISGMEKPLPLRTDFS

For `Cc1ccc2c(=O)c3cccc(CC(=O)O)c3oc2c1C` [DMXAA, 5,6-dimethylxanthenone-4-acetic acid], which “effect on hSTING” value is on record?
The value was “no effect on hSTING”.
